ChEMBL document CHEMBL1201862, “PubChem BioAssay data set” (2004)
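Cells were grown in 96-well plates and exposed to each compound for 48 hours at five concentrations; endpoints were interpolated linearly between bracketing concentrations, or set to the highest concentration if not reached. GI50 is the concentration that inhibits growth by half.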 Activity calls are given as the source filed them. Cut-off read from the data, not from the text of the source: active = GI50 up to about 1.1 µM and inactive = higher. Peptide text beside a SMILES is read from it. * marks the point of attachment. Cbz = O=C(OCc1ccccc1)*; CH2Cl = ClC*

test system: NCI-H322M; assay: NCI-60 cell line screen, 48 h

For `Cc1cc(NS(=O)(=O)c2ccc(/N=N/c3c(Nc4ccccc4)nn(-c4ccc(S(=O)(=O)Nc5ccncn5)cc4)c3C)cc2)no1`, which GI50 is on record?
Its GI50 is inactive: > 100 µM.

`Cc1cc(N(CCC#N)CCC#N)ccc1C(/N=N/c1ccc(Cl)cc1)=N\NC(=O)c1ccccc1` was tested. Which GI50 did it give?
The GI50 was inactive: 36.5 µM.

`C=C(C)[C@H]1[C@@H]2OC(=O)[C@H]1[C@]1(O)C[C@H]3OC34C(=O)O[C@H]2[C@@]41C.CC(C)(O)[C@H]1[C@@H]2OC(=O)[C@H]1[C@]1(O)C[C@H]3OC34C(=O)O[C@H]2[C@@]41C` (stereo not given in full) was tested. Which GI50 did it give?
Its GI50 is inactive: > 100 µM.

`CCCCNC(=S)Nc1nc(C(=O)NNC(=S)Nc2ccccc2)cs1` was tested. Which GI50 did it give?
The GI50 was inactive: 77.3 µM.

Which GI50 does the source give for `Cn1c(-c2ccc(/N=N/Nc3ccc(-c4n[nH]c(=S)n4C)cc3)cc2)n[nH]c1=S` here?
The GI50 was inactive: 42.8 µM.

How did the GI50 turn out when `Cc1cccc2c(N)c3cccc(C(=O)NCC[N+](C)(C)Cc4sc(N5CCOCC5)nc4[N+](=O)[O-])c3nc12` was run?
The GI50 was inactive: 2.9 µM.

`C/C=C\C(CC(=O)NCCC1CN(S(=O)(=O)C(F)(F)F)c2ccccc21)CC(=O)OC` (stereo not given) was tested. Which GI50 did it give?
The GI50 was inactive: 71.3 µM.

For `O=C(O)c1ccc(C2=Nc3cccc4cccc(c34)N2)cc1`, which GI50 is on record?
The GI50 was inactive: > 100 µM.

With `CC(=O)Nc1ccc(C(=O)NN2C(=O)CSC2c2ccc(O)cc2)cc1` (stereo not given) as the molecule, how does the GI50 read?
Its GI50 is inactive: > 100 µM.

With `CCc1n[nH]c(=O)n1O` as the molecule, how does the GI50 read?
The GI50 was inactive: > 100 µM.

For `Cc1nc(-c2cccnc2)sc1C(=O)CC(=O)C(=O)Nc1cccc(NC(=O)C(=O)CC(=O)c2sc(-c3cccnc3)nc2C)n1`, which GI50 is on record?
Its GI50 is inactive: > 100 µM.

How did the GI50 turn out when `N/C(=N\Nc1nc2cc([N+](=O)[O-])ccc2o1)c1ccccn1` was run?
Its GI50 is active: 0.138 µM.

With `CCCCCCOC(=O)C(N)Cc1ccc(OC)cc1` (stereo not given) as the molecule, how does the GI50 read?
Its GI50 is inactive: > 100 µM.

With `CSc1nncc2[nH]cnc12` as the molecule, how does the GI50 read?
Its GI50 is inactive: > 100 µM.

`CCOC(=O)/C=C(/C(=O)OCC)n1ccc(N)nc1=O` was tested. Which GI50 did it give?
The GI50 was inactive: > 100 µM.

With `COC(=O)[C@@H]1C(=O)O[C@@H](c2cc(OC)c(OC)cc2OC)[C@@H]1C(=O)OC.COC(=O)[C@H]1C(=O)O[C@@H](c2cc(OC)c(OC)cc2OC)[C@@H]1C(=O)OC` as the molecule, how does the GI50 read?
Its GI50 is inactive: > 100 µM.

With `CCCCCNC(=O)OC1CCn2c1nc1c2C(=O)C(C)=C(N2CC2)C1=O` (stereo not given) as the molecule, how does the GI50 read?
The GI50 was inactive: 1.6 µM.

Which GI50 does the source give for `COc1cc2c[n+]3c4c(c2c(OC)c1OC)CCCC4CC3` (stereo not given) here?
The GI50 was inactive: > 100 µM.

How did the GI50 turn out when `Cc1ccc(/C=N\NC2c3cc(Cl)ccc3Nc3nc(O)nc(C)c32)cc1` (stereo not given) was run?
The GI50 was inactive: 75.2 µM.

With `COc1ccc(C[C@@H](C(=O)O[C@H](C)[C@H](NC(=O)[C@@H](CC(C)C)N(C)C(=O)C2CCCN2C(=O)[C@H](C)O)C(=O)N2CCCCNC(=O)[C@@H](C)C(=O)[C@H](C(C)C)OC(=O)C[C@H](O)[C@H]2CC(C)C)N(C)C(C)=O)cc1` (stereo not given in full) as the molecule, how does the GI50 read?
The GI50 was inactive: 13.3 µM.

`CO[C@H]1C[C@H](O[C@H]2CC[C@]3(C=O)[C@H]4CC[C@]5(C)[C@@H](C6=CC(=O)OC6)CC[C@]5(O)[C@@H]4CC[C@]3(O)C2)O[C@H](C)[C@H]1O[C@@H]1O[C@H](CO)[C@@H](O)[C@H](O)[C@H]1O` was tested. Which GI50 did it give?
Its GI50 is active: 1.57e-05 µM.

How did the GI50 turn out when `O=C(O)CSC1=NCCN1` was run?
The GI50 was inactive: > 100 µM.

Which GI50 does the source give for `Cn1c(=O)nc2n(-c3ccc(Cl)c(C(F)(F)F)c3)c3ccccc3nc-2c1=O` here?
Its GI50 is inactive: 32.9 µM.

How did the GI50 turn out when `O=C(O)C(Cc1ccccc1)N1C(=O)N/C(=C\c2ccc(F)cc2)C1=O` (stereo not given) was run?
The GI50 was inactive: 30.8 µM.

How did the GI50 turn out when `OC1CCC[C@@H]1Sc1ccccc1` (stereo not given in full) was run?
Its GI50 is inactive: > 100 µM.

For `CCO[C@@H]1CCC([S+]([O-])c2ccc(C)cc2)=CO1` (stereo not given in full), which GI50 is on record?
The GI50 was inactive: > 100 µM.

Which GI50 does the source give for `CC(=O)OC1[C@H]2c3cc4c(cc3CN3CCC(=C[C@@H]1O)C23)OCO4` (stereo not given in full) here?
Its GI50 is inactive: > 100 µM.

Which GI50 does the source give for `COC(=O)[C@H](C)N(C)C(=O)[C@H](C)N1[C@@H](c2ccccc2)COC1(C)C` here?
Its GI50 is inactive: > 100 µM.

How did the GI50 turn out when `c1ccc2c(c1)CC1=C(O2)c2ccccc2OC1` was run?
The GI50 was inactive: 36.7 µM.

How did the GI50 turn out when `COc1ccc(/C=C2\CCCC(CN(C)C)C2=O)cc1` (stereo not given) was run?
The GI50 was inactive: 16.8 µM.

With `O=C1CSC(C(/N=N/c2ccccc2)=C2Nc3ccccc3N2)=N1` as the molecule, how does the GI50 read?
Its GI50 is inactive: 42 µM.

`CN(C(=O)Cc1cc(Cl)c(Cl)cc1NC(=O)CCCN)[C@H]1CCCC[C@@H]1N1CCCC1` was tested. Which GI50 did it give?
The GI50 was inactive: 34.8 µM.

For `O=C(Cn1cc(F)c(=O)[nH]c1=O)C12CC3CC(CC(C3)C1)C2`, which GI50 is on record?
The GI50 was inactive: > 100 µM.

How did the GI50 turn out when `CC(C)CC(NC(=O)OCc1ccccc1)C(=O)NC(Cc1ccccc1)C(=O)CCl` (stereo not drawn) (Cbz-Leu-Phe-CH2Cl; configuration not given here) was run?
The GI50 was inactive: 28.8 µM.

`CCN(CC)Cc1ccccc1CC(=O)N1c2ccccc2C(=O)Nc2cccnc21` was tested. Which GI50 did it give?
The GI50 was inactive: > 100 µM.

How did the GI50 turn out when `CCOC(=O)c1cc2c3c(cc(OC)c2[nH]1)N(C(=O)OCC)CC3` was run?
The GI50 was inactive: > 100 µM.

How did the GI50 turn out when `B.CC(=O)OC1CN2CCC1CC2` (stereo not given) was run?
The GI50 was inactive: > 100 µM.

`CCOC(C[C@H](O[Si](C)(C)C(C)(C)C)[C@H]1COC(=S)S1)OCC` was tested. Which GI50 did it give?
Its GI50 is inactive: > 100 µM.

With `CC(C)N(C(C)C)P(OCCC#N)OC1CC(n2cnc3c(=O)[nH]cnc32)OC1COC(=O)NCCCCCCNC(=O)OC(C)(C)c1ccc(-c2ccccc2)cc1` (stereo not given) as the molecule, how does the GI50 read?
The GI50 was inactive: 78.3 µM.

Which GI50 does the source give for `CN1c2ccccc2N(C)C2C1N(C)c1ccccc1N2C` (stereo not given) here?
Its GI50 is inactive: 23.2 µM.

With `CCOC(=O)c1cc2c([nH]1)c(OC(C)=O)cc1c2ccn1Cc1ccccc1` as the molecule, how does the GI50 read?
Its GI50 is inactive: > 100 µM.

`O=P1(c2ccccc2)C(c2ccccc2)=CC=C1c1ccccc1` was tested. Which GI50 did it give?
The GI50 was inactive: 20 µM.

`O=C1c2ccccc2C(=O)c2c(NCCNC(=O)C3CCCN3)ccc(NCCNC(=O)C3CCCN3)c21` (stereo not given) was tested. Which GI50 did it give?
The GI50 was active: < 0.01 µM.

For `CCSCCCSCCSCC`, which GI50 is on record?
Its GI50 is inactive: > 100 µM.

For `CCCCCCCCCCCCCCCCCCNc1ccn(C2OC(COP(=O)(O)OCC3OC(n4cc(F)c(=O)[nH]c4=O)CC3O)C(O)C2O)c(=O)n1` (stereo not given), which GI50 is on record?
The GI50 was inactive: 44 µM.
